Test results taken from US6251949A, “Oxime derivatives, hydrazone derivatives and use thereof” (Shionogi & Co., Ltd., priority 1996, dated 2001).

Legend:
[1] = test system: Sphaerotheca fuliginea; assay: Controlling effect on cucumber mildew by foliage application (pot experiment); conditions: cucumber first leaf, 10 days after inoculation
Description: (§1) [Controlling effects on various plant diseases by foliage application (pot experiment)]
(§2) A test compound was dissolved in a small amount of N,N-dimethylformamide, and the solution was diluted to a given concentration with distilled water containing a spreader, whereby preparing a liquid sample. The liquid sample was sprayed to each test plant, and after 24 hours each pathogens was inoculated by the method described below.
(§3) A % control was calculated according to the following equation. [formula]
Controlling effect on cucumber mildew microorganism (Sphaerotheca fuliginea)
A seed of a cucumber (cv.: TSUKUBASHIROIBO) was sown in a plastic cup which was 9 cm in diameter, and cultivated for 2 to 3 weeks. The liquid test sample in the form of a solution or suspension was sprayed on the surface of the first leaf. The pathogen was inoculated to the leaf by spraying a conidia suspension of a cucumber mildew microorganism (Sphaerotheca fuliginea) which had been cultured on a cucumber leaf. After the inoculation, the plant was kept in a greenhouse at 20° C. for 10 days. Then, the infected area on the leaf was observed, and the % control was calculated.

[2] = test system: Erysiphe graminis f.sp.tritici; assay: Controlling effect on wheat powdery mildew by foliage application (pot experiment); conditions: wheat seedling, 10 days after inoculation
Description: as §1, §2, §3
Controlling Effect on Wheat Powdery Mildew Microorganism (Erysiphe graminis f.sp.tritici)
A seed of a wheat (cv.: NORIN No.61) was sown in a plastic cup which was 9 cm in diameter and cultivated for 2 to 3 weeks. The test compound in the form of a solution or suspension was sprayed to a seedling, and conidia of a wheat powdery mildew microorganism (Erysiphe graminis fsp.tritici) cultured on a wheat leaf was dropped on the test plant to inoculate the plant with the pathogen. After the inoculation, the plant was kept in a green house at 20° C. for 10 days. The infected area on the leaf was observed, and the % control was calculated.

Compound	Controlling effect on cucumber mildew microorganism (Sphaerotheca fuliginea) by foliage application at 500 ppm (% control) [1]	Controlling effect on wheat powdery mildew microorganism (Erysiphe graminis f.sp.tritici) by foliage application at 500 ppm (% control) [2]
C=CCON=C(C(=O)N(C)C)C(CC)=NOCc1ccccc1 [Compound C-780]	97%	90%
C=CCON=C(C)C(=NOCc1ccc(Cl)c(Cl)c1)C(=O)N(C)C [Compound C-96]	–	90%
OC(c1ccc(Cl)cc1)(c1cncnc1)c1ccccc1Cl (stereo not drawn) [Fenarimol, reference compound]	100%	97%
CON=C(C)C(=NOCc1ccccc1Cl)C(=O)N(C)C [Compound C-11]	–	90%
CON=C(C(=O)N(C)C)C(C)=NOCc1ccccc1 [Compound C-176]	–	90%
C=CCON=C(C)C(=NOCc1ccccc1Cl)C(=O)N(C)C [Compound C-86]	–	90%
CON=C(C(=O)N(C)C)C(C)=NOCc1cccc(Cl)c1 [Compound C-276]	–	90%
CNC(=O)C(=NOC)C(C)=NOCc1ccc(Cl)c(Cl)c1 [Compound B-476]	100%	–
C=CCON=C(C(=O)N(C)C)C(C)=NOCc1ccccc1 [Compound C-180]	100%	90%
CON=C(C(=O)N(C)C)C(C)=NOCc1ccccc1Cl [Compound C-251]	–	90%
C=CCON=C(C(=O)N(C)OC)C(C)=NOCc1ccccc1 [Compound F-180]	100%	90%
